# According to PubChem BioAssay AID1508623 (National Center for Advancing Translational Sciences (NCATS), 2021):
# In all, about 48,000 compounds went through this assay and about 450 (0.94%) were called active. Not shown: some 19% with an inconclusive outcome. Calls follow the shape of the dose curve; as a rule, active = well fitted inhibition curve with a large enough effect; inconclusive = small, poorly fitted or top-dose-only effect; inactive = no such curve, though single readings can be large or run the other way. This is one part of the list.
# Test: Primary qHTS for Identification of Small Molecule Inhibitors of Huntingtin Promoter Activity; also: nearly all actives have a fitted effect of over 50% in size
# Conditions: HEK293 HTT promoter firefly luciferase reporter (activity 0% = vehicle and -100% = no light), 24 h; series mostly up to 57.5 µM; activity change, negative = inhibition: at the top concentration
# Summary of the method: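 HEK293 cells carrying firefly luciferase reporters were seeded at 2,500 per well in Opti-MEM and cultured for 24 h. They were then treated with compounds at up to 57.5 uM final for 24 h at 37 degrees C before Dual-Glo luminescence readout.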
# Potency is read from the fitted curve at half-maximal effect.
Structure (SMILES),"activity change, negative = inhibition",Potency
CCC(=O)N1CCc2cc(S(=O)(=O)NC(CC(C)C)C(=O)NCc3cccc(OC)c3)ccc21 (configuration not stated),inactive: -15.9%,
CCOC(=O)c1cccc(NC(=O)NC2COc3ccccc3C2)c1 (configuration not stated),inactive: -17.7%,
CCN(Cc1ccccc1)S(=O)(=O)c1ccc(F)c(C(=O)Nc2ccc(C(C)C)cc2)c1,inactive: -24.8%,
Cc1cccc(C)c1NC(=O)c1cc2sccc2n1Cc1ccc(F)cc1,inactive: -10.8%,
COc1cc(NC(=O)C2CCN(S(=O)(=O)c3c(C)noc3/C=C/c3c(C)cc(C)cc3C)CC2)cc(OC)c1,inactive: -26.4%,
COc1ccc(OC)c(CNc2ncc(-c3ccc(Cl)cc3)n2C)c1,inactive: 4.59%,
Cc1ccc(CNC(=O)c2cn(C)c3ccc(S(=O)(=O)N4CCC(C)CC4)cc3c2=O)cc1,inactive: -2.48%,
COc1ccccc1N1CCN(CC(O)COc2cccc3ccccc23)CC1 (configuration not stated),inactive,
Cc1ccccc1CN1C(=O)c2ccccc2Sc2ccc(C(=O)NCCCN3CCOCC3)cc21,inactive: -12.5%,
Cc1ccc(Sc2c(C)nn(-c3ccccc3)c2OC(=O)CC(C)C)cc1,inactive: -10.4%,
CCOc1ccc(CC(=O)NCc2ccc3c(c2)CCN3C(=O)c2ccc(F)cc2)cc1OCC,inactive: -22.2%,
Cc1ccc(NC(=O)CN2C(=O)c3ccccc3Sc3ncccc32)c(C)c1,inactive: -25.2%,
Cc1ccc(NC(=O)c2sc3nc[nH]c(=O)c3c2C)cc1C,inactive: 85%,
CC(=O)c1ccc(NC(=O)c2nn(C)c3c2COc2ccccc2-3)cc1,inactive: 2.73%,
CCn1c(SCC(=O)Nc2cc(Cl)ccc2OC)nc2c([nH]c3ccccc32)c1=O,inactive: 1.85%,
CCOc1ccccc1NC(=O)N1CCC(N2CCN(Cc3ccccc3)C(=O)C2=O)CC1,inactive: -11.3%,
CCOC(=O)c1c(NC(=O)c2cc(-c3ccc(Br)cc3)on2)sc(C)c1C,inactive: -2.26%,
CCc1cc2c(-c3ccccc3)cc(=O)oc2c2c1OCN(Cc1ccc(C)cc1)C2,inactive: -13.5%,
O=c1c2ccccc2nc(-c2ccc(Cl)cc2)n1CCCCOc1ccc(F)cc1,inactive: -8.78%,
COC(=O)c1ccc(NC(=O)CCOc2ccccc2)cc1,inactive: 40.3%,
CC(COc1ccccc1)NN (configuration not stated),inactive: -2.9%,

Structure (SMILES),"activity change, negative = inhibition",Potency
CCOc1ccc(CN2C(=O)c3ccccc3Sc3ccc(C(=O)NC4CCC(C)CC4)cc32)cc1 (configuration not stated),inactive: -33%,
Cc1ccc(N(CC(=O)NCc2ccc(OC(C)C)cc2)S(=O)(=O)N(C)C)cc1,inactive: -3.45%,
CCOC(=O)c1ccccc1NC(=O)CCc1c(C)nc2c(c1C)c(=O)n(C)c(=O)n2C,inactive: -2.84%,
COc1ccc(CNC(=O)CCS(=O)(=O)c2cc3c4c(c2)CCN4C(=O)CC3)cc1,inactive: -12.2%,
COC(=O)c1ccc(NC(=O)c2cc3cc4ccc(OC)c(Cl)c4nc3s2)cc1,inactive: 0%,
Cn1cc(C(=O)N2CCN(c3ccccc3)CC2)c(=O)c2cc(S(=O)(=O)N3CCCC3)ccc21,inactive: -9.63%,
O=C(NC1CC(=O)N(c2ccc(F)cc2)C1)C(c1ccccc1)c1ccccc1 (configuration not stated),inactive: -6.84%,
COc1ccc(-c2noc(CSc3nnc(-c4ccncc4)n3-c3ccc(OC)cc3)n2)cc1,inactive: -29.9%,
COCCNC(=O)c1ccc(NC(=O)N2CCCCc3ccccc32)cc1,inactive: -15.3%,
CCOc1ccc(CNC(=O)CN2C(=O)CSc3c2c(C)nn3-c2ccccc2)cc1,inactive: -4.38%,
O=C(Nc1c(O)c2ccccc2oc1=O)c1ccccc1Cl,inactive: 34.1%,
COc1ccc(NC(=O)C(=O)NCCc2csc3nc(-c4ccccc4C)nn23)cc1,inactive: -6.71%,
CCCC(=O)Nc1nnc(S(=O)(=O)N(C)c2ccccc2)s1,inactive: -12.3%,
COc1ccccc1CCNC(=O)C1CCN(c2nc3ccccc3nc2C(F)(F)F)CC1,inactive: 6.6%,
COC(=O)c1ccccc1NC(=O)CSc1c2c(nc3ccc(Cl)cc13)CCCC2,inactive: -14.9%,
COc1cccc(CNC(=O)C2CCCN(c3nnc(-n4c(C)ccc4C)s3)C2)c1 (configuration not stated),inactive: -22.9%,
CC1=C[C@@H]2[C@@H]([C@@H](O)C[C@@]3(C)[C@H]2C[C@@H](C)[C@]3(O)C(=O)CO)[C@@]2(C)Cc3cnn(-c4ccccc4)c3C=C12,inactive: -13.9%,
CCCN(CCC)C(=O)C(CCC(=O)O)NC(=O)c1ccccc1 (configuration not stated),inactive: 2.89%,
O=C(NCC(c1cccnc1)N1CCN(Cc2ccccc2)CC1)C(=O)Nc1ccc(F)cc1 (configuration not stated),inactive: 2.6%,
CC(C)c1ccc(NC(=O)CN(C)S(=O)(=O)c2ccc3c(c2)n(C)c(=O)c(=O)n3C)cc1,inactive: -18.2%,
CCOC(=O)N1CCN(CCC(=O)Nc2cc(C)ccc2C)CC1,inactive: -15.7%,

Structure (SMILES),"activity change, negative = inhibition",Potency
CCn1cnc2cc(NCc3ccc(N(C)C)cc3)ccc21,inactive: 3.48%,
CCCCCCCCCCCCOS(=O)(=O)O,inactive: 11.5%,
CCn1cc2nc(SCC(=O)Nc3cccc(Cl)c3C)n(Cc3ccc(Cl)cc3)c(=O)c2n1,inactive: -14.1%,
CCOc1ccc(C(=O)Nc2ccc3nc(SCC(=O)N4CCCC4)sc3c2)cc1,inactive: 8.58%,
CCc1ccc(CNC(=O)c2cnc3sc(N4CCCCCC4)nn3c2=O)cc1,inactive: 9.97%,
CCOC(=O)c1ccc(NC(=O)CN2C(=O)c3cccnc3Sc3ccccc32)cc1,inactive: 21.6%,
Cc1ccccc1Cn1c(=O)n(CCCCCC(=O)NCc2ccc3c(c2)OCO3)c(=O)c2sccc21,inactive: -5.34%,
O=C(Cn1ncc2c3ccccc3n(Cc3cccc(Cl)c3)c2c1=O)NCCC1=CCCCC1,inactive: -1.44%,
CCN(CC)c1ccc(CNS(=O)(=O)c2cc3c(cc2C)NC(=O)CO3)cc1,inactive: -17.5%,
CCOc1ccc(NC(=O)Nc2c[nH]c(=O)[nH]c2=O)cc1,inactive: -7.95%,
Cn1c(SCc2ccccc2Cl)nc(=O)c2c1NC(=O)CC2c1cc(F)ccc1F (configuration not stated),inactive: -15.8%,
CCOC(=O)c1ccccc1NC(=O)Cn1c(=O)n(-c2ccc(CC)cc2)c(=O)c2c(C)c(C(=O)N(C)C)sc21,inactive: -14.5%,
CCOc1ccccc1CNC(=O)c1ccc2c(c1)nc1n2CCC(C)C1 (configuration not stated),inactive: 6.32%,
CC(=O)c1ccc(N2C(=O)Nc3ccccc3S2(=O)=O)cc1,inactive: -9.26%,
CC(C)Sc1nc2sc3c(c2c(=O)n1-c1ccccc1)CCCC3,inactive: -19.4%,
Cc1ccc(N2CC(NC(=O)c3ccccc3Br)CC2=O)cc1 (configuration not stated),inactive: -22.6%,
Nc1ncc(S(=O)(=O)Nc2ccc(OC(F)(F)F)cc2)cn1,inactive: -10.3%,
CCc1ccc(NS(=O)(=O)c2c(-c3ccccc3)csc2C(=O)OC)cc1,inactive: -28.5%,
Cc1cc(NCc2ccc(Cl)cc2)n2cnnc2n1,,active: 25.1 µM
COc1ccccc1N(CC(=O)Nc1cc(C)cc(C)c1)S(C)(=O)=O,inactive: -0.876%,
